Results from PubChem BioAssay AID1346428 (National Center for Advancing Translational Sciences (NCATS), 2018).
Where “and” joins values, the source holds several entries; their conditions need not be identical. Equal entries are not always repeated. In all, about 48,000 compounds went through this assay and about 1,200 (2.5%) were called active. Another 2% or so got no clear call; they are omitted.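 The calls were made as follows: active = activation of at least 60% and not above a set upper limit (about 1 call in 100 departs from these limits); inconclusive = activation of 40% to 60%, or above that upper limit; inactive = activation under 40%.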 The list shows a part of the results.

What follows are compounds tested against Probable G-protein coupled receptor 32 (Homo sapiens) (UniProt O75388) (assay: qHTS for Agonists of Human Resolvin D1 Receptor DRV1). Details: CHO-K1 GPR32 beta-arrestin PathHunter luminescence, 90 min; at 76.9 µM; active compounds read high; zero percent set by DMSO-only wells.
Summary of the method: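 Engineered CHO-K1 line co-expressing GPR32-ProLink and EA-beta-arrestin. Compound treatment lasted 90 min at 37 °C. Luminescence was recorded after 1 h with substrate at ambient temperature, relative to DMSO basal wells.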
Also: 0% is about no effect.

Chain of UniProt O75388 (O75388 whole entry, looked up): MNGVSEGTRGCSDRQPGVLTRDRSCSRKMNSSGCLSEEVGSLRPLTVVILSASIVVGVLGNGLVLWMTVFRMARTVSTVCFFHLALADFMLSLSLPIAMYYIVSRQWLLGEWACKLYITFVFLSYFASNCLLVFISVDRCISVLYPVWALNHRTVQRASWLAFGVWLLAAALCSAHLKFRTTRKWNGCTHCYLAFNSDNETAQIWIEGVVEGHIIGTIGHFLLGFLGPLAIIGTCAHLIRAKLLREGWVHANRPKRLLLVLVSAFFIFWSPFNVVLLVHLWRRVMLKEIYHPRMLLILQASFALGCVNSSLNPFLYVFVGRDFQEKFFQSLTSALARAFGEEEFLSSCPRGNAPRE

| Compound | activation |
| --- | --- |
| COC(=O)C1=CCCN(C)C1 | inactive: 9.51% and inactive: -2.45% |
| Cc1c(C(c2ccc(Br)cc2)c2c(O)c3ccccc3oc2=O)c(=O)n(-c2ccccc2)n1C (stereo not drawn) | inactive: 0.698% |
| Cc1ccc(Cn2cccc(C(=O)Nc3cc(C)on3)c2=O)cc1 | inactive: 29.6% |
| NNC(N)=O | inactive: -1.16% |
| O=C(NC(=O)c1c(F)cccc1F)Nc1cc(Cl)c(OC(F)(F)C(F)C(F)(F)F)cc1Cl (stereo not drawn) | inactive: -3.94% |
| Cc1ccccc1-n1c(/C=C/c2c(C)[nH]c3ccccc23)nc2ccccc2c1=O | inactive: -28.1% |
| CNCC(=O)c1ccc(O)c(O)c1 | inactive: -8.99% |
| COc1ccc(OCC(=O)N2CCN(CCc3ccncc3)CC2)cc1 | inactive: -15% |
| CC1=C2[C@H]3OC(=O)[C@@H](C)[C@@H]3CC[C@@]2(C)C=CC1=O | inactive: -0.399% |
| COP(=S)(OC)SCN1C(=O)c2ccccc2C1=O | inactive: -3.01% |
| C1CN2CCC1CC2 | inactive: 15.1% |
| Cc1ccccc1OCC(=O)N1CCN(CCc2ccccn2)CC1 | inactive: 10.8% |
| c1ccc(C2(c3ccccc3)CC2C2=NCCN2)cc1 (stereo not drawn) | inactive: -6.28% |
| CCCN(CCC)C1CCc2ccc(O)cc2C1 (stereo not drawn) | inactive: 15.7% |
| O=[N+]([O-])c1c2ccccc2cc2ccccc12 | inactive: 42.2% |
| O=C(Nc1ccc2c(c1)OCO2)c1cccn(Cc2cccc([N+](=O)[O-])c2)c1=O | inactive: -4.69% |
| COc1ccc(NC(=O)CCc2nc(C3=CCN(Cc4cccc(Cl)c4)CC3)no2)c(OC)c1 | inactive: 27.2% |
| O=S1(=O)N(Cc2ccccc2Cl)CCCN1Cc1ccccc1Cl | inactive: -15.2% |
| Cc1cccc(-c2nn3c(=O)cc(CN4CCN(C(=O)COc5ccc(Cl)cc5)CC4)nc3s2)c1 | inactive: 4.78% |
| CN(N=O)c1cc(O)ccc1O | inactive: 23.7% |
| CC(C)=CCN1CC[C@@]2(C)c3cc(O)ccc3C[C@@H]1[C@@H]2C | inactive: 20.5% |
| CC(N)Cc1c[nH]c2ccc(O)cc12 (stereo not drawn) | inactive: -5.74% |
| O=c1c2ccccc2nc(/C=C/c2ccccc2F)n1-c1cccc(O)c1 | inactive: -33.1% |
| CCc1nc(SC)ncc1C(=O)Nc1ccc(Cl)cc1C(=O)c1ccccc1 | inactive: -16.4% |
| COc1cccc(C2SCC(=O)Nc3c2c(C)nn3-c2ccc(C)c(Cl)c2)c1OC (stereo not drawn) | inactive: 15.5% |

| Compound | activation |
| --- | --- |
| COc1ccc2c3c1O[C@H]1[C@H](O)CC[C@H]4[C@@H](C2)N(C)CC[C@@]341 | inactive: -24.3% |
| NC(Cc1cc(O)c(O)cc1O)C(=O)O (stereo not drawn) | inactive: -7.14% |
| COc1cc(CC#N)cc(OC)c1OC | inactive: -16.6% |
| CCC(C)C(C)(COC(N)=O)COC(N)=O (stereo not drawn) | inactive: 5.7% |
| Cc1cccc(CN2C(=O)CN=C(c3ccccc3)c3ccccc32)c1 | inactive: -27.8% |
| COc1ccc(-n2c(/C=C/c3cccc(F)c3)nc3ccccc3c2=O)cc1Cl | inactive: -9.03% |
| O=C(N[C@@H]1N=C(c2ccccc2F)c2cccc3c2N(CC3)C1=O)c1cc2ccccc2[nH]1 | inactive: 2.52% |
| Cc1ccc(NC(=O)Cn2cc(C(=O)c3ccccc3)c3ccccc32)c(C)c1 | inactive: -16.8% |
| C[C@]12N[C@H](Cc3ccccc31)c1ccccc12 | inactive: -7.81% |
| CCOc1ccc(CN(CCc2ccc3c(c2)OCO3)Cc2ccc(C)cc2)cc1 | inactive: -35.3% |
| O=C1CCCN1CC#CCN1CCCC1 | inactive: -1.05% |
| CC(C)(C)c1o[nH]c(=O)c1CC(N)C(=O)O (stereo not drawn) | inactive: -3.63% |
| CC(C)Cc1nc2cccnc2n1C1CCNCC1 | inactive: -21.4% |
| Cc1cccc(-n2nc(C)c3c2NC(=O)CSC3c2ccccc2Cl)c1 (stereo not drawn) | active: 63.2% |
| CCCCC12CN3CC(C)(CN(C1)C3c1ccccn1)C2=O (stereo not drawn) | inactive: -18.4% |
| Oc1cc(Cl)ccc1Oc1ccc(Cl)cc1Cl | inactive: -37.1% and inactive: 47.9% |
| CC1(C)C(C=C(Cl)Cl)C1C(=O)OC(C#N)c1cccc(Oc2ccccc2)c1 (stereo not drawn) | inactive: -14.2% |
| COc1ccc2[nH]cc(CCN(C(C)C)C(C)C)c2c1 | inactive: -50.6% |
| CCN(CC)C(=O)c1ccc(NC(=O)CCn2nc(-c3ccc(Cl)cc3)c3ccccc3c2=O)cc1 | inactive: 5.02% |
| Cc1ccc(Cl)c(O)c1 | inactive: 5.92% |
| CN1C[C@@H](NS(=O)(=O)N(C)C)C[C@@H]2c3cccc4c3c(cn4C)C[C@H]21 | inactive: -6.56% |
| COc1cc(CC(C)N)cc(OC)c1OC (stereo not drawn) | inactive: 18% |
| C[N+](C)(C)CC#CCOC(=O)Nc1cccc(Cl)c1 | inactive: 4.23% |
| COc1ccc(CN2CCN(C(=O)COc3ccccc3)CC2)c(OC)c1 | inactive: 4.75% |
| Cc1cccc(C2CC(=O)Oc3c2c(=O)oc2ccccc32)c1 (stereo not drawn) | inactive: -11% |

| Compound | activation |
| --- | --- |
| CCN(CC)C(=O)c1ccc(NC(=O)CCn2nc(-c3ccc(C)cc3)c3ccccc3c2=O)cc1 | inactive: -26.9% |
| C=CCN1CCC23c4c5ccc(O)c4O[C@H]2C(=O)CC[C@@]3(O)C1C5 (stereo partly drawn) | inactive: -10.4% |
| Oc1cccc2cccnc12 | inactive: -26.4% and inactive: 6.21% |
| CCOc1ccc(CN(CCc2ccc3c(c2)OCO3)Cc2cccc(C)c2)cc1 | inactive: -42.9% |
| CC(C)(O)C(Cl)(Cl)Cl | inactive: -1.68% |
| CCCCC(CC)COC(=O)c1ccccc1C(=O)OCC(CC)CCCC (stereo not drawn) | inactive: -17.7% |
| Oc1ccc(Cl)cc1Cc1ccccc1 | inactive: 48.5% and inactive: 45.1% |
| c1ccc(N2CCNCC2)cc1 | inactive: -8.37% |
| CCCCc1ccc(C(=O)O)nc1 | inactive: 13% |
| CCC1(c2ccccc2)CCC(=O)NC1=O (stereo not drawn) | inactive: -25.7% |
| c1cc2ccc3cccc4ccc(c1)c2c34 | inactive: -8.75% |
| Oc1ccc2c3c1O[C@H]1c4[nH]c5c(c4C[C@@]4(O)[C@@H](C2)N(CC2CC2)CC[C@]314)C[C@@]1(O)[C@H]2Cc3ccc(O)c4c3[C@@]1(CCN2CC1CC1)[C@H]5O4 | inactive: -13.5% |
| COc1ccc2c3c1O[C@H]1[C@@H](O)C=C[C@H]4[C@@H](C2)N(C)CC[C@@]341 | inactive: 12.9% |
| Cc1cccc2sc(NC(=O)c3cccn(Cc4ccccc4)c3=O)nc12 | inactive: -4.67% |
| COc1ccc2[nH]cc(CCN)c2c1 | inactive: -8.16% |
| O=C(CN1C(=O)CN=C(c2ccccc2)c2ccccc21)Nc1cccc(C(F)(F)F)c1 | inactive: 33.7% |
| CCCC1=Nc2cc(C(=O)NC3CCC(C)CC3)ccc2Sc2ccccc21 (stereo not drawn) | inactive: -14.3% |
| CC(C)(C)NCC(O)c1cc(Cl)c(N)c(C(F)(F)F)c1 (stereo not drawn) | inactive: -3.65% |
| Cc1cc(NC(=O)c2cccn(Cc3ccccc3)c2=O)no1 | inactive: -5.53% |
| Cc1ncc(CNC(=O)N(CCCl)N=O)c(N)n1 | inactive: 9.97% and inactive: -1.7% |
| COc1cc(C[C@@H](C)N)c(OC)cc1C | inactive: -6.69% |
| CC(N)[C@H](O)c1ccc(O)c(O)c1 (stereo partly drawn) | inactive: 3.53% |
| CC(C)=CC1C(C(=O)OCN2C(=O)C3=C(CCCC3)C2=O)C1(C)C (stereo not drawn) | inactive: 28.3% |
| CCCN(CCC)C(=O)Cc1c(-c2ccc(Cl)cc2)nc2ccc(Cl)cn12 | inactive: -44.4% |
| Clc1cccc(N2CCNCC2)c1 | inactive: -0.154% |

| Compound | activation |
| --- | --- |
| Clc1ccc(CSC(Cn2ccnc2)c2ccc(Cl)cc2Cl)cc1 (stereo not drawn) | inactive: -76.8% |
| Cc1cc(C)cc(OCC(=O)Nc2ccc(Cl)cc2C(=O)c2ccccc2)c1 | inactive: -17.8% |
| Oc1c(Br)cc(Br)cc1Br | inactive: 22.3% |
| NCCc1cc(O)c(O)cc1O | inactive: -18.9% |
| NNc1ccccc1 | inactive: -11% |
| C[C@]12Cc3cn4c(nc3C=C1CCC1C2CC[C@@]2(C)[C@H]1CC[C@@]2(O)C#N)nc1ccccc14 (stereo partly drawn) | inactive: -5.93% |
| COc1ccc(OCC(=O)N2CCN(Cc3cccc(OC)c3OC)CC2)cc1 | inactive: -3.97% |
| CN(C)CCc1c[nH]c2ccc(O)cc12 | inactive: -6.97% |
| CCOC(=O)c1ccc(NC(=O)c2sc3nc4c(cc3c2N)N2CCC4CC2)cc1 | inactive: 20.2% |
| CCCC[N+]1(C)[C@@H]2CC(OC(=O)[C@H](CO)c3ccccc3)C[C@H]1[C@@H]1O[C@@H]12 (stereo partly drawn) | inactive: -4.34% |
| C=CCN(C1=NCCN1)c1c(Cl)cccc1Cl | inactive: 4.83% |
| N#C/C(=C/c1ccc(O)c(O)c1)C(N)=S | inactive: -46% |
| CC[C@@]1(O)C(=O)OCc2c1cc1n(c2=O)Cc2cc3ccccc3nc2-1 | inactive: 9.25% |
| CCCOC(=O)c1cncn1C(C)c1ccccc1 (stereo not drawn) | inactive: -10% |
| O=C(Nc1ccc(Br)cc1C(=O)c1ccccc1)c1ccccc1 | inactive: -9.25% |
| CCCOC(=O)Cc1ccc(OCC(=O)N(CC)CC)c(OC)c1 | inactive: -6.14% |
| CC(CCc1ccccc1)NC(C)C(O)c1ccc(O)cc1 (stereo not drawn) | inactive: -4.35% and inactive: -14% |
| OCCCBr | inactive: -4.1% |
| NC(=NCCC[C@H](N)C(=O)O)N[N+](=O)[O-] | inactive: -6.67% |
| Cc1ccc(OCC(=O)Nc2ccc(Cl)cc2C(=O)c2ccccc2)cc1 | inactive: -9.89% |
| CC1Sc2c(C(=O)O)c(=O)c3cc(F)c(N4CCNCC4)cc3n21 (stereo not drawn) | inactive: -23.4% |
| Cc1c(C(=O)c2cccc3ccccc23)c2cccc3c2n1[C@H](CN1CCOCC1)CO3 | inactive: -27.9% |
| O=S1(=O)N(Cc2ccccc2)CCCN1Cc1ccc(F)cc1Cl | inactive: -20.2% |
